Data: publication PMC6919601, “Identification of Plasmodium dipeptidyl aminopeptidase allosteric inhibitors by high throughput screening” (PLoS ONE, 2019)
Several values for one entry are separate records, joined by “and”; a condition that tells them apart may be missing. Equal values may be shown once. Among all 110,000 compounds or so, about 230 (0.21%) showed an effect of 50% or more. This is one part of the list.

target: DPAP1 (Plasmodium falciparum, UniProt Q8IIJ9); experiment: primary screen, percent inhibition; read by cleavage of a fluorogenic dipeptide substrate; higher = more effect of the substance; design: species or system P. falciparum D10 trophozoite lysates; single well
Sequence (Q8IIJ9 whole entry, looked up): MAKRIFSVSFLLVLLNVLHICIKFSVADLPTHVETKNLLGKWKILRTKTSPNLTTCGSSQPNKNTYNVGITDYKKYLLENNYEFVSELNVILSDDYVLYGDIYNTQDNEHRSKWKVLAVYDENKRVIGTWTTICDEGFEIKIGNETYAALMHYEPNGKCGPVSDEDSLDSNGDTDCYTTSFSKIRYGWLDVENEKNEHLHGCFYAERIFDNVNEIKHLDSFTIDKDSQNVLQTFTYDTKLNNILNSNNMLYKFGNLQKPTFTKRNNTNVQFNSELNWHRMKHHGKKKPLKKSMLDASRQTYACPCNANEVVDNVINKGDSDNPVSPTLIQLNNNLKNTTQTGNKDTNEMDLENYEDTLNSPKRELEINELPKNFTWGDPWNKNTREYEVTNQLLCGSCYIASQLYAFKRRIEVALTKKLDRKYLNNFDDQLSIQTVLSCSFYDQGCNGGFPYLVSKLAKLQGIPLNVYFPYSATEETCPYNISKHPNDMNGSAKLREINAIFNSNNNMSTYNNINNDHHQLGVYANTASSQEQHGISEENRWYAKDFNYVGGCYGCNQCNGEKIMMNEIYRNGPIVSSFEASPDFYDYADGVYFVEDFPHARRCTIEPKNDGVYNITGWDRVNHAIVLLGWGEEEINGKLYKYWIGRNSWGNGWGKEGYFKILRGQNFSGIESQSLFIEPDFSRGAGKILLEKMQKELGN
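Also: 30 min substrate incubation versus DMSO and 10 µM JCP410 controls.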

| SMILES | % Inhibition @ 10 uM |
| --- | --- |
| O=C(c1cc(-c2ccccc2)[nH]n1)N1CCC2(CC1)OCCO2 | 3.75% |
| Cc1nc2cc(-c3ccccc3)nn2c(C)c1CC(=O)NCc1cccc(Cl)c1 | -2.45% |
| CCc1ccc(CN2CCN(C(=O)c3ccc(OC)cc3)CC2)cc1 | -1.24% |
| c1ccc(-c2noc(-c3ccccn3)n2)cc1 | 1.94% |
| COc1c(Cl)cc(Cl)cc1C(=O)NC1CCCCC1 | -2.18% |
| COc1cccc(S(=O)(=O)NCc2ccc(C(=O)NCc3ccco3)cc2)c1 | -4.63% |
| CC(NC(=S)NC(=O)/C=C/c1ccco1)C12CC3CC(CC(C3)C1)C2 (stereo not drawn) | -3.16% |
| Cc1oc(-c2ccc3c(c2)OCCO3)cc1C(=O)NCC(=O)O | -1.69% |
| O=c1c(OCc2ccccc2)c(-c2ccco2)oc2ccc(Cl)cc12 | -1.65% |
| COc1ccc(-c2nc(CS(=O)(=O)CC(=O)NCCc3ccc(Cl)cc3)c(C)o2)cc1 | -1.89% |
| CN1CCC(NC(c2ccccc2)c2ccccc2)CC1 | -1.82% |
| COC(=O)CCC(=O)Nc1c(C)cc(C)cc1C | -3.58% |
| COC(=O)c1sccc1NC(=O)Cn1ncc2c(=O)oc3ccc(C)cc3c21 | 4.55% |
| N#CCNC(=O)[C@H](CC1CCCCC1)NC(=O)Cc1ccc(OCc2ccccc2)cc1 | -6.98% |
| O=P(CCO)(c1ccccc1)c1ccccc1 | -1.59% |
| CCN(CC)c1ccc(NC(=O)c2c(-c3ccccc3)noc2C)cc1 | -3.24% |
| CNC(=O)/C(=C\c1ccc(-c2ccc(Br)cc2)o1)NC(=O)c1ccccc1 | -4.75% |
| Cc1nc(O)nc(O)c1C1N2CC3(C)CN1CC(C)(C2)C3=O (stereo not drawn) | 2.05% |
| CCn1cc(/C=C(\NC(=O)c2ccccc2OC)C(=O)NCCCO)c2ccccc21 | -1.74% |
| CC1(C)CC2(CCO1)OC(=O)CC2C(=O)NCCc1ccccc1 (stereo not drawn) | 3.59% |
| Cn1c(=O)c2c(nc3n2CC(c2ccccc2)=NN3)n(C)c1=O | 1.13% |
| CCc1nc2c(cnn2-c2ccccc2)c(=O)n1-c1ccc(C)cc1 | -10.9% |
| O=c1[nH]c(=O)n([C@H]2C[C@H](O)[C@@H](CO)O2)cc1Br | -1.52% |
| Cc1ccc(CS(=O)(=O)Cc2ccc(C(=O)N3CCC4(CC3)OCCO4)o2)cc1 | -1.21% |
| COc1cc(OC)c(OC)cc1CN1CCN(Cc2cccc(Br)c2)CC1 | -2.3% |
| CC1=C(C(=O)Nc2ccc(Cl)cc2)C(c2ccc(Cl)cc2)NC(S)=N1 (stereo not drawn) | 3.42% |

| SMILES | % Inhibition @ 10 uM |
| --- | --- |
| Cc1cc(C)nc(N2N=C(CSc3ccc(Cl)cc3)CC2=O)n1 | 2.31% |
| COc1ccccc1NC1=C(Cl)C(=O)N(c2ccccc2C)C1=O | -4.6% |
| CCOc1ccccc1C(=O)Nc1nc(-c2ccc(F)cc2F)cs1 | -0.132% |
| COc1cc(Cl)c(C)cc1NC(=O)Nc1ccc(Cl)cc1 | -9.29% |
| CN(Cc1ccccc1)C(=O)COc1cc(Cl)ccc1Cl | -0.7% |
| COc1ccc(Cn2c(C(=O)O)c(CNCc3ccccc3F)c3ccc(C)cc32)cc1 | -5.04% |
| O=C(C1=C(O)C(=O)N(c2ccccc2)C1c1ccccc1)c1cccs1 (stereo not drawn) | -6.92% |
| COc1ccc(NC(=O)C2CCCN2S(=O)(=O)c2ccc(Cl)cc2)cc1 (stereo not drawn) | 4.09% |
| Cc1cccc(CNC(=O)CCC(=O)N2Cc3ccccc3Oc3ncccc32)c1 | -5.28% |
| CCNC(=O)CCc1nc(-c2ccccc2Cl)no1 | -1.35% |
| CCC[C@H](NC(=O)C1(NC(=O)c2ccc(OC(F)(F)F)cc2)CCCCC1)C(=O)c1nnc(-c2cccc(C(F)(F)F)c2)o1 | -10.1% |
| O=C1CCCC(O)=C1C(C1=C(O)CCCC1=O)c1ccc2c(c1)OCO2 | 0.708% |
| N=C1/C(=C\c2cccc3ccccc23)C(=O)N=C2SC(N3CCCC3)=NN12 | -1.66% |
| CCn1cc(CNC(=O)Nc2cccc(C)c2)c(C)n1 | -2.74% and 1.4% |
| COc1ccc(CCNC(=O)Cn2cnc3onc(-c4ccc(Cl)cc4)c3c2=O)cc1OC | 8.12% |
| O=C1CSc2ccc(C(=O)O)cc2N1 | 0.392% |
| CCOCCCNC(=O)c1nnc(Cc2cc(OC)c(OC)c(OC)c2)o1 | 2.5% |
| C=CCOC(=O)C1=C(C)NC(=O)NC1c1cccc(Cl)c1 (stereo not drawn) | 5.01% |
| CC1=C(C(=O)N2CCOCC2)C(c2ccccc2F)C2=C(O)CC(C)(C)CC2=N1 (stereo not drawn) | 3.45% |
| O=C1/C(=C/c2ccccc2F)SC(=S)N1C1CCS(=O)(=O)C1 (stereo not drawn) | 0.135% |
| O=S(=O)(NC1CCc2ccccc21)c1ccc(-n2cnnn2)cc1 (stereo not drawn) | -1.07% |
| O=C1CCCN1CCCNc1ncnc2c1cnn2-c1ccc(Cl)cc1 | 1.09% |
| O=C(NCc1ccccn1)C1CC1c1ccccc1 (stereo not drawn) | -1.04% |
| Cc1nc2c(-c3cccc4ccccc34)c(C)nn2c(O)c1Cl | 0.789% |
| C=CCn1c(SCC(=O)N2CCCc3ccccc32)nc2sc(C)cc2c1=O | 5.54% |
